Results from PubChem BioAssay AID493208 (National Center for Advancing Translational Sciences (NCATS), 2011).
Out of some 44,000 compounds screened, about 340 (0.77%) were called active. Roughly 5% stayed inconclusive and do not appear here. Calls follow the shape of the dose curve; as a rule, active = well fitted inhibition curve with a large enough effect; inconclusive = small, poorly fitted or top-dose-only effect; inactive = flat fitted curve, though single readings scatter. Some of the results follow.

assay: Acumen qHTS Assay for Inhibitors of the mTORC1 Signaling Pathway in MEF (Tsc2-/-, p53-/-) Cells: Sytravon; conditions: phospho-rpS6 immunofluorescence/PI, 24 h; series mostly up to 38.3 µM; activity change, negative = inhibition: at the top concentration; also: nearly all actives have a fitted effect of over 50% in size;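 as to activity change, negative = inhibition: plate controls were DMSO for no effect and rapamycin for full effect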
Procedure, shortened: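 Readout is phospho-S6 Alexa 488 signal normalized to PI per well, reported as % active cells with thresholds set from rapamycin (7.5 nM) and DMSO controls. Cells: Tsc2-/-, p53-/- MEFs, 24 hrs compound at 37 C; PI cell number serves as viability.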
Potency is read from the fitted curve at half-maximal effect.

SMILES | activity change, negative = inhibition | Potency
Cc1nc2ccccn2c(=O)c1NC(=O)c1cccc(F)c1 | inactive: -7.63% | 
CCOc1ccc(C2C(=O)N(C3CCCCCC3)CC(=O)N2Cc2ccccc2)cc1OC (stereo not given) | inactive: 0.749% | 
COc1ccc(NC(=O)/C=C\C(=O)N(c2ccc(C(C)C)cc2)C(C(=O)NCc2ccco2)c2ccc(C)cc2)cc1 (stereo not given) | inactive: -9.01% | 
CCOC(=O)c1cccc(NC(=O)c2ncoc2-c2ccco2)c1 | inactive: 10.7% | 
Cc1ccccc1N(C)S(=O)(=O)c1nnc(NC(=O)c2ccco2)s1 | inactive: 2.53% | 
CCOC(=O)c1cc(-c2ccc(OC)cc2)n(CCC(=O)NCCc2ccccc2)c1C | inactive: -2.87% | 
COc1cccc(C(=O)NCCc2csc3nc(-c4ccccc4F)nn23)c1OC | inactive: -1.98% | 
Cc1ccc(NC(=O)C2(C)Cc3ccccc3C(=O)O2)c(C)c1 (stereo not given) | inactive: 2.16% | 
Cc1cc(OCC(=O)NCCc2nc3ccccc3[nH]2)cc(C)c1Cl | inactive: -4.79% | 
Cc1ccc(S(=O)(=O)C(CNC(=O)c2c(F)cccc2F)c2ccco2)cc1 (stereo not given) | inactive: -5.02% | 
Cc1cccc(C(=O)N2CCc3cc(CNC(=O)c4cc5ccccc5[nH]4)ccc32)c1 | inactive: -2.6% | 
CCn1nc(C)c(CCN(C)C(=O)Nc2cccc(Cl)c2C)c1C | inactive: 0% | 
Cc1ccc(CNC(=O)C(C)n2c(=O)cc(C(F)(F)F)c3c(C)nn(C)c32)cc1 (stereo not given) | inactive: -9.59% | 
O=S(=O)(c1ccccc1)c1nc(-c2ccccc2Cl)oc1N1CCCCCC1 | inactive: -11.3% | 
Cc1cc(C)c(S(=O)(=O)NCCS(=O)(=O)N2CCN(c3ccccc3)CC2)c(C)c1 | inactive: -0.498% | 
CCOc1ccc(CCNC(=O)C2CCCN(S(=O)(=O)N(C)c3ccc(F)cc3)C2)cc1 (stereo not given) | inactive: -16.9% | 
CCS(=O)(=O)N1CCc2cc(C(=O)NCc3ccccc3OC)ccc21 | inactive: -1.31% | 
Cc1ccccc1-c1nc2scc(CCNC(=O)c3ccco3)n2n1 | inactive: -10% | 
COc1cccc(NC(=O)C2CCC(CNS(=O)(=O)c3ccc4c(c3)CCCC(=O)N4)CC2)c1 (stereo not given) | inactive: -11.8% | 
COc1cccc(NC(=O)C2CCN(c3ccc(Sc4ccc(C)cc4)nn3)CC2)c1 | inactive: -0.424% | 
COc1ccc(NC(=O)CN2C(=O)COc3ccc(S(=O)(=O)N4CCOCC4)cc32)cc1 | inactive: 0.873% | 
O=C(CSc1nc(=O)n(Cc2ccco2)c2c1CCC2)NCc1ccccc1 | inactive: -7.17% | 
Clc1ccccc1OCCSc1nnc(-c2cccs2)o1 | inactive: 0.133% | 
CCc1ccc2oc(-c3ccc(C)c(NC(=O)/C=C/c4ccco4)c3)nc2c1 | inactive: 5.71% | 

SMILES | activity change, negative = inhibition | Potency
Cc1ccc2nc(/C(C#N)=C/c3ccccc3F)[nH]c2c1 | inactive: 6.68% | 
Cc1cccc(OCCSc2nnc(-c3cccs3)o2)c1 | inactive: -0.351% | 
Cc1sc2ncn(CC(=O)N3CCN(c4ccccc4F)CC3)c(=O)c2c1S(=O)(=O)N1CCC(C)CC1 | inactive: 2.88% | 
COc1ccc(Cl)cc1-n1cc(-c2ccccc2)nc1SCC(=O)Nc1ccc(C)cc1 | inactive: -3.52% | 
O=C(NC1CCCC1)c1ccc2c(=O)n(Cc3ccccc3)c(SCc3ccccc3F)nc2c1 | inactive: -6.11% | 
COc1ccccc1CNC(=O)C1CCN(c2nc3ccc(C)cc3[nH]2)CC1 | inactive: -8.23% | 
COc1ccc(-c2cc(-c3ccc(C)cc3)nc3c2COc2ccccc2-3)cc1 | inactive: -0.521% | 
CCC(Cn1nnc2ccccc2c1=O)NC(=O)Nc1ccccc1OC (stereo not given) | inactive: -8.12% | 
Cc1ccc(S(=O)(=O)c2nc(-c3ccc(F)cc3)oc2SCC(=O)NC2CCCCC2)cc1 | inactive: 0.229% | 
COc1ccc(CCNC(=O)c2ccc3c(c2)CCN3S(C)(=O)=O)cc1OC | inactive: 1.15% | 
COc1ccc2c(CNCCc3ccc(SC)cc3)c(C(=O)O)n(Cc3ccc(F)cc3)c2c1 | inactive: 0% | 
COc1ccc2c(c1)c(=O)c(C(=O)c1ccccc1)cn2CC(=O)Nc1ccc2c(c1)OCO2 | inactive: 0.917% | 
COc1ccc(Cn2cc(S(=O)(=O)c3ccc(C)cc3)c(=O)c3cc(F)ccc32)cc1 | inactive: 1.89% | 
Cc1nc(-c2ccc(S(=O)(=O)Nc3cc(Cl)ccc3C)cc2)co1 | inactive: -12.7% | 
CCS(=O)(=O)c1ncc(Cl)c(C(=O)N2CCN(c3ccc(OC)cc3)CC2)n1 |  | active: 3.29 µM
CCOc1ccc(NC(=O)c2oc3ccccc3c2NC(=O)COc2cccc(OC)c2)cc1 | inactive: -12.4% | 
Cc1cccc(CN2C(=O)c3ccccc3Sc3ccc(C(=O)NCc4ccco4)cc32)c1 | inactive: 5.82% | 
NS(=O)(=O)c1ccc(CCNC(=O)C2CCN(c3ncnc4c3nc3n4CCCCC3)CC2)cc1 | inactive: -5.89% | 
CCC(Sc1nc2c(sc3ccccc32)c(=O)n1CCc1ccc(OC)c(OC)c1)C(=O)N(CC)CC (stereo not given) | inactive: 1.45% | 
CCC(CC)C(=O)Nc1nnc(S(=O)(=O)N2CCCCCC2)s1 | inactive: -9.96% | 
Cc1cn2c(=O)cc(COC(=O)c3ccc(NC(=O)c4ccc(F)cc4)cc3)nc2s1 | inactive: 33.3% | 
CCOC(=O)c1ccc(NC(=O)c2cnn3c(=O)c4c(n(CC)c23)CCN(Cc2ccc(OC)cc2)C4)cc1 | inactive: 0% | 
COC(=O)c1ccc(Nc2ncnc3c2cnn3C)cc1 | inactive: 2.04% | 
CC1CCN(S(=O)(=O)N2CCC(C(=O)NCc3ccccc3Cl)CC2)CC1 | inactive: 6.6% | 

SMILES | activity change, negative = inhibition | Potency
COc1ccc(CNC(=O)Cc2c(C)c3cc4c(C)coc4cc3oc2=O)cc1OC | inactive: 2.46% | 
COc1ccc(C2c3[nH]c4ccccc4c3CCN2C(=O)CCC2CCCC2)cc1 (stereo not given) | inactive: -8.19% | 
CCN(CC)c1ccc(NC(=O)c2cc(C)nc3c2c(C)nn3-c2ccc(C)cc2)c(C)c1 | inactive: -0.643% | 
CC(Sc1nccn1C)C(=O)Nc1ccccc1C#N (stereo not given) | inactive: -3.23% | 
COc1ccc(-c2nc3scc(CCNS(=O)(=O)c4ccc(Oc5ccccc5)cc4)n3n2)cc1OC | inactive: -1.63% | 
Cc1ccsc1CCN1C(=O)N(c2ccccc2)C(=O)C1CC(=O)Nc1ccc(Cl)cc1 (stereo not given) | inactive: -5.31% | 
CCN(CC)C(=O)c1sc2c(c1C)c(=O)n(-c1ccc(C)c(C)c1)c(=O)n2Cc1cc(=O)n2ccccc2n1 | inactive: 0.174% | 
O=C(CNC(=O)c1ccccc1)OCc1cc(=O)n2nc(C3CCCCC3)sc2n1 | inactive: 4.17% | 
Cc1ccc2sc(N(Cc3cccnc3)C(=O)CCS(=O)(=O)c3ccccc3)nc2c1C | inactive: -4.29% | 
COc1ccc(N2CCN(C(=O)CSc3nc(-c4ccc(C(C)C)cc4)no3)CC2)cc1 | inactive: 3.67% | 
CC(=O)c1cccc(NC(=O)Nc2sc3nc4n(c(=O)c3c2C)CCC(C)CC4)c1 (stereo not given) | inactive: -1.12% | 
CCN(CC)C(=O)c1sc2c(c1C)c(=O)n(Cc1ccccc1)c(=O)n2Cc1ccccc1C | inactive: -15.6% | 
Clc1ccc(CN2CCN(c3ncnc4sc5c(c34)CCCC5)CC2)cc1Cl | inactive: -5.89% | 
COc1ccc(CNC(=O)Cc2c(C(=O)O)c(C)cn2C)cc1 | inactive: -5.65% | 
COc1ccc(-c2nc3scc(CCNS(=O)(=O)c4ccc5c(c4)OCCO5)n3n2)cc1OC | inactive: -0.896% | 
O=C(NCc1ccc(F)cc1Cl)c1cc(=O)[nH]c2ccc(S(=O)(=O)N3CCCCC3)cc12 | inactive: -0.915% | 
CCOc1ccc(C(=O)Nc2c(C(=O)Nc3ccccc3OC)oc3ccccc23)cc1OCC | inactive: -3.33% | 
Cc1cc(C)cc(OCCSc2nc3ccc(NC(=O)c4cccs4)cc3s2)c1 | inactive: -6.25% | 
Cc1c(-c2ccccc2)c(=O)oc2ccc(OC(=O)N3CCOCC3)cc12 | inactive: -3.44% | 
O=C(Cn1cc(C(=O)C2CCCCC2)c2ccccc21)Nc1ccccc1Cl | inactive: -9.07% | 
COc1ccc2c(C)c(CC(=O)NCCc3ccc(Cl)cc3)c(=O)oc2c1C | inactive: 1.85% | 
CCOc1ccc(NC(=O)CSC2=Nc3ccccc3C3=NC(CC(=O)NCc4cccs4)C(=O)N23)cc1 (stereo not given) | inactive: 0.502% | 
COc1cc(-c2cc(OC)c3c(C)oc(C)c3c(=O)c2)ccc1OC(=O)c1ccc(C)cc1 | inactive: -0.0619% | 
O=C(CSc1n[nH]c(-c2ccccc2Cl)n1)NCCCc1ccccc1 | inactive: 4.45% | 

SMILES | activity change, negative = inhibition | Potency
Cc1ccc(-c2cn3c(n2)sc2cc(C(=O)NCCCN4CCCCCC4)ccc23)cc1 | inactive: -0.388% | 
CC(CCc1ccccc1)NC(=O)Cn1c(=O)nc(-c2ccccc2)c2cc(Cl)ccc21 (stereo not given) | inactive: 0% | 
CCc1ccc2oc(C(=O)N(Cc3ccc(N(C)C)cc3)Cc3ccco3)c(C)c2c1 | inactive: 3.05% | 
CC1=C(c2ccc(C)c(C)c2)S(=O)(=O)N=C1N1CCC(C(=O)NC(C)c2ccccc2)CC1 (stereo not given) | inactive: 8.28% | 
CCCN(CCC)C(=O)c1cc2c(=O)n3cccc(C)c3nc2s1 | inactive: -1.35% | 
CC(=O)c1cccc(NC(=O)C2CCN(c3ncnc4c3nc3n4CCCCC3)CC2)c1 | inactive: -19.8% | 
O=C1c2ccccc2-c2onc3c(N4CCN(C5CCCCC5)CC4)cc(NCCO)c1c23 | inactive: 5.13% | 
CCCN(Cc1cccs1)C(=O)Nc1cc(C)cc(C)c1 | inactive: -1.5% | 
Cc1nn(C)c2c1c(-c1ccccc1)cc(=O)n2Cc1ccc(F)cc1Cl | inactive: -9.89% | 
CCN(CC)C(=O)Cn1c(=O)n(-c2ccc(Cl)cc2)c(=O)c2c3c(sc21)CCCCC3 | inactive: -1.17% | 
COc1ccc(-c2nc3ccccc3o2)cc1NC(=O)c1cccc2c(Cl)cccc12 | inactive: -0.579% | 
COc1ccc(NC(=O)CC2C(=O)N(c3ccc(OC)cc3)C(=O)N2Cc2ccc(OC)c(OC)c2)cc1 (stereo not given) | inactive: -3.27% | 
CCOc1ccc(N2CC(NC(=O)Cc3cccs3)CC2=O)cc1 (stereo not given) | inactive: 0.0048% | 
CCOc1ccc(CCNC(=O)CCn2c(=O)c3cccn3c3ccc(F)cc32)cc1OCC | inactive: -6.76% | 
CCOc1ccc(NC(=O)CCc2c(C)nc3c4c(C)cc(C)nc4nn3c2C)cc1 | inactive: -13.1% | 
CN(Cc1ccccc1)c1ccc2cc(S(=O)(=O)N3CCCCC3)ccc2n1 | inactive: -5.06% | 
Cc1ccc(C)c(CSc2cn(CC(=O)N3CCCC3)c3ccccc23)c1 | inactive: -13.9% | 
COc1ccc2cc(-c3nc(-c4ccc(N(C)C)cc4)no3)c(=O)oc2c1 | inactive: -9.7% | 
COc1ccc(N2CCN(C(=O)c3ccc4c(c3)CCN4S(=O)(=O)c3ccccc3)CC2)cc1 | inactive: -6.37% | 
COc1cccc(-c2cc(C(=O)NCc3ccccc3)no2)c1 | inactive: 5.61% | 
Cc1c(C(=O)N(C)Cc2ccccc2)sc2nc(-c3ccc(F)cc3)cn12 | inactive: 0.906% | 
COc1cc(NC(=O)CSc2cc(=O)n(C)c3ccccc23)cc(OC)c1OC | inactive: 1.36% | 
COCCCNC(=O)C1CCN(Cc2cc3ccccc3n2Cc2cccc(Cl)c2)CC1 | inactive: 0.349% | 
